This experiment deals with Plasmodium falciparum NF54 stage V gametocytes. The experiment can be described thus: viability index relative to DMSO control (fraction); higher = less gametocyte killing. The note with it: 2.5 µM, incubation time: 72 h. The procedure, abridged: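 Stage V gametocytes of P. falciparum NF54 were held in serum-free screening medium at 0.75% gametocytemia and 1.25% hematocrit, 10 µl per well of a 1,536-well plate, and exposed to compound at 2.5 µM for 72 hr at 37°C under low oxygen. A 3 µl mix of 2.5 µM MitoTracker Red CMXRos with 0.13% saponin was then added for one to two hours, after which one field per well was imaged and red particles of 20–70 µm2 were counted. The viability index equals this count divided by the plate mean from wells given solvent alone.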

[1] abbreviates: library set: Broad Institute DOS.

± gives the uncertainty stated by the source. In all, about 9,900 compounds were measured (“viability index relative to DMSO control”: median about 1, lowest 2% from about 0.85 on). The list shows a part of the results.

The compound `COc1ccc2c3c([nH]c2c1)[C@H](CO)N(C[C@]31CN(C1)C(=O)Nc1c(C)noc1C)C(=O)Nc1ccc(F)cc1` showed a viability index under setting [1] of 1.121 ± 0.0049. Regarding `COCC(=O)Nc1ccc2c(c1)[C@@H]1C[C@H](CC(=O)NCc3ccc4c(c3)OCO4)O[C@H](CO)[C@@H]1O2`, under setting [1], the viability index stood at 1.12 ± 0.077.

As for `CO[C@H]1CC[C@@H]2CCN(C)C(=O)CCCN(C)C(=O)c3cc(C#N)ccc3OC[C@H]1O2`, the viability index under setting [1] came out at 0.989 ± 0.033. Turning to `COc1cccc(-c2ccc([C@@H]3[C@H]4CNCC(=O)N4[C@H]3CO)cc2)c1`, the viability index under setting [1] was determined as 1.07 ± 0.013. On the same count and under the same terms, the figure for `O=C(N[C@@H]1CC[C@@H](CCn2cc(-c3ccccc3F)nn2)O[C@@H]1CO)c1ccc2c(c1)OCO2` is 1.126 ± 0.0065. For the compound `O=C(NCCN1CCCCC1)[C@H]1N[C@H]2c3ccc(-c4cccnc4)c(=O)n3C[C@H]2[C@@H]1CO`, under setting [1], the viability index is 1 ± 0.083.

With `COCC(=O)N1CC2(C1)[C@@H](c1ccccc1)[C@@H](CO)N2C(=O)NC1CCCC1`, the viability index under setting [1] was 0.975 ± 0.12.

On to `COc1ccc2c3c([nH]c2c1)[C@@H](CO)N(C[C@]31CCN(CC1)S(=O)(=O)c1cn(C)cn1)C(=O)Nc1ccc(F)cc1`, for which the viability index under setting [1] worked out at 1.066 ± 0.004. On the same count and under the same terms, the figure for `C[C@H](NC(=O)C[C@H]1C=C[C@@H](NC(=O)c2cccnc2)[C@H](CO)O1)c1ccccc1` is 1.061 ± 0.0091; for `COc1cccc(S(=O)(=O)N[C@@H]2CC[C@@H](CC(=O)NC3Cc4ccccc4C3)O[C@@H]2CO)c1` it is 1.06 ± 0.064.

Under setting [1], `Cc1ccc(S(=O)(=O)N[C@H]2C=C[C@H](CC(=O)NCc3ccc(Cl)c(Cl)c3)O[C@H]2CO)cc1` gave a viability index of 0.88 ± 0.074. On the same count and under the same terms, the value for `COCCNC(=O)C[C@H]1C[C@@H]2c3cc(NC(=O)CN(C)C)ccc3O[C@@H]2[C@H](CO)O1` was 1.112 ± 0.0086; that for `CCC(=O)N1C[C@@H]2[C@H](c3ccccc31)[C@H](CO)N2C(=O)CC1CC1` was 1.06 ± 0.016. The same measure, in the same setting: the figure for `O=C(C[C@H]1CC[C@H](NC(=O)c2ccc3c(c2)OCO3)[C@H](CO)O1)NCc1ccc(Oc2ccccc2)cc1` is 1.12 ± 0.056; for `COc1ccc2c3c([C@@H](CO)N(Cc4cccnc4)C[C@]33CCN(CC3)C(=O)NC(C)C)n(C)c2c1` it is 1 ± 0.033; for `CN1[C@H](C(=O)Nc2nccs2)[C@@H](CO)[C@@H]2Cn3c(ccc(-c4ccccc4F)c3=O)[C@@H]21` it is 1.05 ± 0.027. Turning to `O=C(C[C@H]1C[C@H]2c3cc(NS(=O)(=O)c4ccc(F)cc4)ccc3O[C@H]2[C@H](CO)O1)NCCN1CCCCC1`, under setting [1], the viability index was 1.09 ± 0.044. On the same count and under the same terms, the value for `CN1CCN(C(=O)C[C@H]2C[C@@H]3c4cc(NS(C)(=O)=O)ccc4O[C@@H]3[C@H](CO)O2)CC1` was 1.01 ± 0.043. In turn, `O=C(c1ccccc1F)N1CC(=O)N2[C@H](CO)[C@H](c3ccc(-c4cccnc4)cc3)[C@H]2C1` had a viability index (library set: Broad Institute Blood Stage) of 0.742 ± 0.068. In turn, `CN(C)C(=O)c1cccc(-c2ccc3n(c2=O)C[C@H]2[C@H](CO)[C@@H](C(=O)NCC4CC4)N[C@@H]32)c1` displayed a viability index under setting [1] of 1.08 ± 0.012.

`COc1ccc(CN(C)C[C@@H]2OCc3cnnn3CCCC(=O)N([C@H](C)CO)C[C@@H]2C)cc1` yielded a viability index under setting [1] of 0.963 ± 0.038. Same read-out and setting: the figure for `O=C1CCC(=O)N[C@@H](c2ccccc2)C/C=C\CCN1` is 1.01 ± 0.087; for `CCc1nc(N2[C@H](CO)[C@H](c3ccccc3-c3ccc(F)cc3)[C@@H]2C#N)sc1C` it is 1.03 ± 0.12; for `CC(C)[C@@H]1CCc2cnnn2COC[C@H](Cc2ccccc2)NC1=O` it is 1.04 ± 0.017. For the compound `CN(C)C(=O)c1cccc(-c2ccccc2[C@@H]2[C@@H](C#N)N(C(=O)C3CCCCC3)[C@@H]2CO)c1`, the viability index under setting [1] was 1.01 ± 0.017. Turning to `C[C@H]1CN([C@@H](C)CO)C(=O)CCCn2nncc2CO[C@@H]1CN(C)C(=O)Nc1cccc(Oc2ccccn2)c1`, the viability index under setting [1] was found to be 1.111 ± 0.0083.

Under setting [1], `C[C@@H]1CN([C@H](C)CO)C(=O)Cc2cc(NS(=O)(=O)c3ccc(F)cc3)ccc2O[C@@H]1CN(C)Cc1ccncc1` came in with a viability index of 1 ± 0.033. On the same count and under the same terms, the value for `COc1ccc(-c2ccc([C@@H]3[C@H]4CN(Cc5ccccc5)CC(=O)N4[C@H]3CO)cc2)cc1` was 1.089 ± 0.0085; that for `COc1ccc2c3c([nH]c2c1)[C@H](CO)N(CC1CC1)C[C@]31CCN(CC1)C(=O)Nc1cccc(F)c1` was 1.01 ± 0.059; that for `Cc1noc(C)c1NC(=O)N(C)C[C@@H]1Oc2cc(C#CCN(C)C)ccc2S(=O)(=O)N([C@H](C)CO)C[C@H]1C` was 1.02 ± 0.17.

The compound `CN1c2ccc(-c3ccccc3F)cc2[C@H]2[C@H](CCN2C(=O)Nc2cc(F)ccc2F)[C@H]1CO` had a viability index under setting [1] of 1.077 ± 0.0071. On the same count and under the same terms, the figure for `COc1ccccc1S(=O)(=O)N[C@H]1C=C[C@H](CC(=O)N2CCOCC2)O[C@H]1CO` is 1.1 ± 0.077; for `CCCNC(=O)N1C[C@@H](C)[C@@H](OC)CN(C)C(=O)c2ccc(NC(=O)CC)cc2OC[C@H]1C` it is 1.055 ± 0.0082.

In turn, `CCS(=O)(=O)N1CCCCN2[C@@H](CO)[C@@H](c3ccc(-c4ccc(C(=O)N(C)C)cc4)cc3)[C@@H]2C1` registered a viability index under setting [1] of 1.07 ± 0.067. Regarding `C[C@@H]1CN([C@H](C)CO)C(=O)c2cc(NC(=O)c3ccncc3)ccc2O[C@@H](C)CCCCO[C@H]1CN(C)Cc1ccc(Cl)c(Cl)c1`, the viability index under setting [1] was 1.09 ± 0.036.
